Source: PMC3306812 (Molecular Cell, 2012)

Target: donor Ub (E2-linked ubiquitin) (UniProt P0CG48 fragment, C-terminal Gly76 in oxyester linkage to Ser85 of UbcH5b^C85S)
Assay: crystal structure

B1: OTUB1^Δ[…] (the OTUB1 part of the crystallised fusion) (domain or fragment)
chain: not shown
Does B1 bind?
Result: binds
